Test results from a compilation of properties of binary mixtures (doi:10.1016/j.fluid.2013.11.025).
The densities may have been worked out from excess volumes.

Assay: xn = mol fraction of the nth substance listed
Conditions: 101 kPa

CCCCCCCCCCCC[N+](CC)(CC)CC.O=S(=O)([N-]S(=O)(=O)C(F)(F)F)C(F)(F)F + CO
mass density [kg/m3]
Conditions | x1 = 0.0108 | x2 = 0.0308 | x2 = 0.0798 | x2 = 0.1664 | x2 = 0.2879 | x2 = 0.4047 | x2 = 0.4925 | x2 = 0.5951 | x2 = 0.7403 | x2 = 0.9008
283.15 K | 846.8 | – | 1196.1 | 1192.4 | – | 1177 | 1168.6 | 1154.7 | 1121.6 | 1025.5
288.15 K | 842.1 | 1194.3 | 1192 | 1188.3 | 1181.7 | 1173 | – | 1150.5 | 1117.3 | –
293.15 K | – | 1190.2 | 1188 | 1184.3 | 1177.6 | 1168.9 | 1160.4 | 1146.3 | 1113 | 1016.6
298.15 K | – | – | 1184 | – | 1176.3 | – | 1156.3 | 1142.1 | – | 1012.1
303.15 K | 827.9 | 1182.2 | – | 1176.3 | 1169.6 | 1160.8 | 1152.2 | 1138 | 1104.4 | 1007.6
308.15 K | 823.2 | – | – | 1172.4 | 1165.6 | – | 1148.1 | – | 1100.1 | –
313.15 K | 818.4 | 1174.4 | 1172.2 | – | 1161.6 | 1152.7 | 1144 | 1129.6 | – | 998.5
318.15 K | – | 1170.5 | – | 1164.5 | 1157.7 | 1148.7 | – | 1125.5 | – | 993.9
323.15 K | – | 1166.6 | 1164.4 | 1160.5 | – | 1144.6 | 1135.8 | 1121.3 | 1087.3 | 989.4
328.15 K | 803.9 | 1162.7 | – | – | 1149.7 | 1140.6 | 1131.8 | 1117.2 | 1083 | 984.8
333.15 K | 799 | 1158.8 | 1156.6 | 1152.7 | 1145.7 | – | 1127.7 | 1113.1 | 1078.7 | 980.2
338.15 K | 794.1 | 1154.9 | 1152.7 | 1148.8 | 1141.8 | – | 1123.6 | 1108.9 | – | 975.6

CCCCCC[N+](CC)(CC)CC.O=S(=O)([N-]S(=O)(=O)C(F)(F)F)C(F)(F)F + CO
mass density [kg/m3]
Conditions | x2 = 0.1188 | x2 = 0.2988 | x2 = 0.3842 | x2 = 0.4936 | x2 = 0.599 | x2 = 0.6971 | x2 = 0.8006 | x2 = 0.8995 | x2 = 0.9017 | x2 = 0.975
283.15 K | 1293.8 | 1278.6 | – | – | 1231.3 | 1200.7 | 1149.4 | – | 1051.5 | 896.9
288.15 K | 1289.5 | 1274.3 | – | 1248.8 | 1226.8 | 1196.1 | 1144.8 | 1049.9 | 1046.7 | 892.1
293.15 K | 1285.3 | 1270 | 1260.4 | 1244.4 | – | 1191.6 | 1140.2 | – | 1042 | 887.4
298.15 K | 1281.1 | 1265.7 | 1256.1 | – | – | 1187.1 | 1135.6 | 1040.5 | 1037.3 | 882.6
303.15 K | 1276.9 | 1261.4 | 1251.7 | 1235.6 | 1213.4 | 1182.5 | 1130.9 | 1035.7 | – | 877.8
308.15 K | – | 1257.2 | – | 1231.3 | 1209 | 1178 | – | 1031 | 1027.8 | 873
313.15 K | 1268.5 | – | – | – | 1204.5 | 1173.5 | 1121.7 | 1026.3 | 1023 | 868.2
318.15 K | 1264.3 | 1248.6 | 1238.8 | 1222.5 | 1200.1 | – | 1117 | 1021.5 | 1018.3 | 863.3
323.15 K | 1260.1 | 1244.4 | 1234.5 | 1218.2 | 1195.7 | 1164.4 | – | 1016.7 | – | 858.5
328.15 K | – | 1240.1 | 1230.2 | 1213.8 | 1191.2 | 1159.9 | 1107.8 | 1011.9 | – | 853.6
333.15 K | 1251.8 | 1235.9 | 1225.9 | 1209.5 | 1186.8 | 1155.4 | 1103.1 | – | – | 848.6
338.15 K | 1247.6 | 1231.7 | 1221.6 | 1205.1 | 1182.4 | – | 1098.4 | 1002.3 | 999.1 | 843.6
